The record followed here is the supplement of paper PMC11417369.

The list shows a part of the results.

The test system of this assay is PfHDP1 homeodomain (GST-tagged). Nature of the assay: gcPBM binding intensity (ln(normalized median fluorescence intensity)); higher = stronger DNA binding. An outline of the steps: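 DNA-binding domains from P. falciparum, fused to GST and produced in E. coli, were put on an Agilent 4 × 180k double-stranded probe array for 1 h in 1× PBS holding 1% milk, 0.2 mg/ml BSA, 0.5% salmon testes DNA and 0.03% Triton X-100. Probes were primer-extended, 36 bp long and drawn from intergenic genomic regions, with negative controls included. After Alexa488 anti-GST antibody detection and a 488 nm scan, binding intensity was set as the highest Masliner-normalised natural-log median intensity across replicate spots of either probe orientation.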
As for “TTAAACCGTGGGAGCACACACACACCCCCACCCATA [CACACA_site331]”, the “gcPBM binding intensity (ln)” value was 6.79.
For “CACTTAACACAAGAGTGTACACATATATATATATAT [XGTACX_site686]”, the “gcPBM binding intensity (ln)” value was found to be 9.43.
With “ATATTAGTAACACAGACACACAAAAAAAAAAAAAAA [CACACA_site2176]”, the “gcPBM binding intensity (ln)” value came out at 6.38.
“TTGTACGCAAAAAAAAAAAAAAAAAAATTAAAATTT [TGCATGCA_negctrl_site586]”: the “gcPBM binding intensity (ln)” value turned out to be 6.03.
Consider “TTTTTCTCTTTAAGGTGTACAATAATACAGTAACCA [XGTACX_site300]”, for which the “gcPBM binding intensity (ln)” value stood at 6.34.
In the case of “TTTTTTATTATCAAAACATGCATTTTTTAAATGGAA [TGCATGCA_site557]”, the “gcPBM binding intensity (ln)” value worked out at 6.25.
“AGGAAAATACCTTAATGTACATAGAAAAGTAACATT [XGTACX_site8011]”: the “gcPBM binding intensity (ln)” value amounted to 6.18.
Turning to “TTTTATTTATTATTTACACACACGTAGGTGTCCATA [CACACA_site430]”, the “gcPBM binding intensity (ln)” value stood at 7.18.
“AATATGTATCCATACACACATACATTTTATTTGCAA [CACACA_site874]”: the “gcPBM binding intensity (ln)” value was 7.08.
For the sequence “TATCTTATTTTATCTCGTACATAAAATTAAAAAATT [XGTACX_site3636]”, the “gcPBM binding intensity (ln)” value was 6.5.
“TTAAATTACTAATGTGCACACATACTAACGTTTAAA [CACACA_site3573]”: the “gcPBM binding intensity (ln)” value worked out at 11.
As to “AATACATAAAAATAAAAATAAAATATAACTAATATG [CACACA_negctrl_site186]”, the “gcPBM binding intensity (ln)” value is 6.34.
Turning to “AAAACTATAATGAATAGTACATAAAAATGGATATAT [XGTACX_site6056]”, the “gcPBM binding intensity (ln)” value was found to be 6.63.
With “TTATACATATATTTAACACACATTTTATAAAGTGCC [CACACA_site1314]”, the “gcPBM binding intensity (ln)” value came out at 6.49.
Then “CATTTTATTTTAATATGTACTTAAAGAAAAAAAATT [XGTACX_site7670]”, with 6.18.
With “TTTTGACATTAATTACTATAGTGTTCTTATAAAATT [TGCATGCA_negctrl_site589]”, the “gcPBM binding intensity (ln)” value turned out to be 6.81.
On to “TAATAATCCACAAGCACACACACACCCATATATATA [CACACA_site1267]”, for which the “gcPBM binding intensity (ln)” value amounted to 6.95.
Regarding “TTAAGGATCCACGATACACACATATCATTCAACAAA [CACACA_site1924]”, the “gcPBM binding intensity (ln)” value is 6.31.
As for “ATATATAATATATGATGTACTTAATAATTTTTTTTT [XGTACX_site5715]”, the “gcPBM binding intensity (ln)” value is 6.26.
“TATATACACATGCGCACACACAAGTGGGAAATTTGG [CACACA_site6930]”: the “gcPBM binding intensity (ln)” value came out at 7.97.
In the case of “AATATTTGCCTATGTTGTACTGACATTTTTTTAAGT [XGTACX_site6836]”, the “gcPBM binding intensity (ln)” value was determined as 6.57.
With “TTATATTTTTTAATTACACACAATTCTTATAAATAT [CACACA_site7870]” the figure was 6.6.
Then “TATTATAACTAAAAAAATCACATAAAATACTTTATT [CACACA_negctrl_site2]”, with 5.56; and “TTAACCTTTATATAATACGTATCATCCTCATATATA [CACACA_negctrl_site86]”, with 7.17; and “ATATAAAATCAACAAAAAAAAAAAATATATATATAT [XGTACX_negctrl_site251]”, with 9.1.
For the sequence “TGTATATATTTGTGCACACCAAAGTTTGATTTTATT [CACACA_site1860]”, the “gcPBM binding intensity (ln)” value stood at 11.4.
As to “TATTTATTATAAAAATTGTATAAAATAATAATGCTC [GTGCAC_negctrl_site456]”, the “gcPBM binding intensity (ln)” value amounted to 6.35.
Turning to “GTTATTAAAAACGGGTGTACACATATATAAATATAT [XGTACX_site1234]”, the “gcPBM binding intensity (ln)” value came out at 7.35.
On to “TTCTCATCCTTACATACACACACATATATATATATA [CACACA_site7914]”, for which the “gcPBM binding intensity (ln)” value turned out to be 9.31.
Then “TATAATCATAAATACACACACATATATATATATATA [CACACA_site5224]”, with 9.31.
“GTTCAATTATTTTTATGTACATATATTTTTTTCTTT [XGTACX_site2505]”: the “gcPBM binding intensity (ln)” value is 7.13.
With “AAATTGGGGCTTGTTACACACTTAGTGTGAGTTCTA [CACACA_site6417]”, the “gcPBM binding intensity (ln)” value stood at 6.6.
In the case of “ATTTATAATATGTATACACACACATATATAAATATA [CACACA_site8729]”, the “gcPBM binding intensity (ln)” value was found to be 6.7.
Then “ACAAATGAGATTATATGTACACATAACAAATTTACA [XGTACX_site3496]”, with 6.54.
With “AAATGTAAAATTTTATGTACATATATTTATATAATA [XGTACX_site3737]” the figure was 6.39; with “GTTACACCAACAAACACACACACACCGACACCCAAA [CACACA_site5361]”, 6.93.
With “ATGTTTTATAAAAGGCGTACACATATATTTAAGTAA [XGTACX_site6231]”, the “gcPBM binding intensity (ln)” value was determined as 6.85.
For “TTTATTTATTTAATTACACACGAACATATAACCATT [CACACA_site7952]”, the “gcPBM binding intensity (ln)” value was determined as 6.8.
Turning to “TAAAAAAAAAAAAAAGTACACACTTATAAAATATTA [CACACA_site872]”, the “gcPBM binding intensity (ln)” value worked out at 5.96.
For “ATATATTTTTTGAATACACACATATTATATGTAATA [CACACA_site1256]”, the “gcPBM binding intensity (ln)” value turned out to be 6.61.
In the case of “TTTCACAAATGATATAGTACTTTTTATTATTAACAT [XGTACX_site7976]”, the “gcPBM binding intensity (ln)” value stood at 6.12.
In the case of “ACTTTTTTAATGTTACGTACACATAAATAATAATTA [XGTACX_site8092]”, the “gcPBM binding intensity (ln)” value came out at 6.94.
Then “TTCATTCTATAAAACACACAAATATTTTTGTATCCC [CACACA_site6458]”, with 6.78; and “ATATATTTTAATGATACACACAAGAAATAAAATTAC [CACACA_site5671]”, with 6.63.
With “ATAGAACAATTCAGAAGTACATAAAAAGAAAAATTT [XGTACX_site3015]” the figure was 6.28; with “TTGGATGATTAAGGGGGACACACGTTTATATATTTA [CACACA_site338]”, 7.3.
Consider “TTTTGTGATCTTACCACCTTTCATAATATTAATAAA [GTGCAC_negctrl_site360]”, for which the “gcPBM binding intensity (ln)” value amounted to 6.72.
For the sequence “TATATAATAAAAAAAAGTACTTGGACAATATTATTT [XGTACX_site2802]”, the “gcPBM binding intensity (ln)” value amounted to 6.47.
For the sequence “ATCAAAATATTTATATGTACATATTAAAAATATAGA [XGTACX_site725]”, the “gcPBM binding intensity (ln)” value stood at 6.41.
As for “TTAATTTACATGAACTGTACATAACATTTTTTTAAA [XGTACX_site4672]”, the “gcPBM binding intensity (ln)” value turned out to be 6.15.
With “AAATAGCCAAAAATCATGCACACCTAAAAAAAAAAA [CACACA_site2572]”, the “gcPBM binding intensity (ln)” value amounted to 8.16.
With “TATATATATATATATTGTACATATATTATTATATAT [XGTACX_site7447]” the figure was 9.22; with “ATATTGGAGCACAACACACACAAGTATATATATGGA [CACACA_site1546]”, 8.52.
With “CATACATACAAACACACACACACACCGATATATATA [CACACA_site8952]” the figure was 7.1.
Regarding “CACATACAGACATACACACACATATATATTAATATA [CACACA_site546]”, the “gcPBM binding intensity (ln)” value is 7.24.
Then “AATTCTCTTAATAAATAAACACAAATAAATAATAAA [GTGCAC_negctrl_site499]”, with 6.39; and “ATCAACATCTAACATTGTACATGTGATGTGTAAAAG [XGTACX_site547]”, with 6.69; and “ATATTTGCCCAAGATAGTACATATATATATATATAT [XGTACX_site7756]”, with 9.3.
As to “ATAAATAAATAAATAAATAAATAAATAAATATATAT [CACACA_negctrl_site1728]”, the “gcPBM binding intensity (ln)” value is 6.24.
Then TCTTTTTCTTGACGAGTGCAAAAATTGTGTTTGAAA, with 9.06; and “ATTTATTTTATATGTTGTACAAACATTTTAAAACAT [XGTACX_site6919]”, with 6.47; and “CTAATATCTGTATGCACACACAATAAATACATATTT [CACACA_site5797]”, with 9.73.
For the sequence “TTTTTTTAAAGAATTATCATAAAATGATTGCATCAT [XGTACX_negctrl_site141]”, the “gcPBM binding intensity (ln)” value was 6.34.
Regarding “AATGCCTTGTTGAGGTGTACTGAATGTTATTTTAAT [XGTACX_site3255]”, the “gcPBM binding intensity (ln)” value was 6.16.
“TTAACATATTTGTTAGTGCATTTTGATATTACACAT [GTGCAC_site9978]”: the “gcPBM binding intensity (ln)” value turned out to be 8.55.
“AAAAAAATTAAATGTACACACACCTTAAACAATGTC [CACACA_site1855]”: the “gcPBM binding intensity (ln)” value came to 6.3.
As for “TCAGTAATACTTGAATGTACTTATATTGTTTGTTTG [XGTACX_site6449]”, the “gcPBM binding intensity (ln)” value was found to be 6.17.
Regarding “CCTATATTAAAACAAGCACACAATCGCATAATATCC [CACACA_site9052]”, the “gcPBM binding intensity (ln)” value was 6.75.
On to “AAGGAAATATAATATACACACATAAGTGTACTTATA [CACACA_site4030]”, for which the “gcPBM binding intensity (ln)” value was determined as 6.35.
With “ATTATATATCCCTATTCACACATGTATTATATAAAT [CACACA_site5486]”, the “gcPBM binding intensity (ln)” value was 7.06.
With “TAATAAAGTGAATAATGTACATTTTATTTATTATAT [XGTACX_site6614]”, the “gcPBM binding intensity (ln)” value turned out to be 6.31.
Regarding “GAAAAATTAAAAATAACACACACATATATATATTTA [CACACA_site8896]”, the “gcPBM binding intensity (ln)” value came to 6.38.
“TAATTTTTTTTTATGATACACACTTGGATAATTAAA [CACACA_site562]”: the “gcPBM binding intensity (ln)” value was determined as 6.22.
With “TTATTATATATTTTATTTATTAATAGTATATATTAT [TGCATGCA_negctrl_site155]”, the “gcPBM binding intensity (ln)” value is 5.86.
Regarding “ATATTTTATTTATATACACACACATATATATATTAT [CACACA_site8177]”, the “gcPBM binding intensity (ln)” value was determined as 7.22.
Then “TTCTTTATATACAAACCAAAATATTATGTATAATAA [CACACA_negctrl_site15]”, with 6.12; and “CTTTATATAAAATAAAGTACATAAATTATGATATAT [XGTACX_site3699]”, with 6.63; and “ATACATATAATATATGCATGTACCAATCAAATATAT [TGCATGCA_site192]”, with 6.46.
For TTATTCTAGTAGTGTGTGCGCATGGACAATGCAATA, the “gcPBM binding intensity (ln)” value was 7.48.
As to “TATATATCGTTATATACACACATGTATATAAAAAAT [CACACA_site7501]”, the “gcPBM binding intensity (ln)” value amounted to 6.5.
“TATAAACATAAATATACACACAAACATATATGTATT [CACACA_site8324]”: the “gcPBM binding intensity (ln)” value worked out at 6.68.
With “AGACATATAATATATACACACATATATATATATATA [CACACA_site1066]” the figure was 9.29; with “CGTTTCCCCAATGGTTGTACAATATATATATATATA [XGTACX_site8641]”, 9.12.
Turning to “AAGAAAAAATAAAGCACACAAATATTTTAAAAACAC [CACACA_site3325]”, the “gcPBM binding intensity (ln)” value came to 7.12.
Then “TTATTTATAATGTTGTGTACATATATGAATATACCA [XGTACX_site3111]”, with 6.38; and “TATTTTACGTATTGTTGTACTTGAAACAAATATACA [XGTACX_site8778]”, with 6.31.
As for “TTTTTTCAATTGGAAATTATTTTACAATGAAGGGTA [XGTACX_negctrl_site469]”, the “gcPBM binding intensity (ln)” value worked out at 6.31.
Then “ACATATTTAAAAACATGTACAAATATATTTATAATT [XGTACX_site661]”, with 6.52.
